PubChem BioAssay AID445 (National Center for Advancing Translational Sciences (NCATS), 2006)
Out of some 110,000 compounds screened, about 40 (0.04%) were called active. Inconclusive means that the source gave no clear call. Such entries were picked first, then a sample of the others. The call rests on the fitted dose curve; in most records, active means well fitted curve in the direction sought with a large enough effect in the signal ratio (not every such curve was filed as active); inconclusive means small, poorly fitted or top-dose-only effect, or a change in a side signal; inactive means flat fitted curve, though single readings scatter; the % refers to the signal ratio. Potencies of inconclusive entries are doubtful fits and often do not repeat.

Assay: IkB Signaling;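 on IkBa stabilization activation: 0% = basal untreated cells and 100% = reference inhibitor full response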
Details: ABC-DLBCL IkBa-CBG/CBR dual luciferase ratio (green luciferase fused to IkBa over red control in OCI-Ly3 lymphoma cells), 4 h, scaled: untreated 0%
Outline: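 In this assay, an IκBα–CBG68 fusion accumulates when IKK-driven degradation is blocked; native CBR normalizes for cell number. OCI-Ly3 cells were treated 4 h with compound and doxycycline, then green and red light read after Chroma-Glo addition.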

[1] = IkBa stabilization activation: at 57.1 µM (top of the series), proteasome inhibitor 100% unless noted
Potency means the concentration at half of the fitted maximal effect.

Question: For `CN(C)c1ccc(C(=O)Nc2nc3c(s2)CCCC3)cc1`, which Potency [1] is on record?
Answer: inconclusive: 31.6 µM [rising, partial curve]

Question: For `O=C(CCSCc1cnn(-c2ccccc2)c1-n1cccc1)NCc1ccc(Cl)cc1`, which IkBa stabilization activation [1] is on record?
Answer: inconclusive: 6.79% [signal inhibitor]

Question: For `COc1ccc2[nH]c(=O)c3c(c2c1)OC(C)(C)C=C3`, which IkBa stabilization activation (at 11.4 µM (top of the series), proteasome inhibitor 100%) is on record?
Answer: inconclusive: -3.89% [signal inhibitor]

Question: What about the IkBa stabilization activation (at 57.1 µM (top of the series), proteasome inhibitor 100%) of the same compound?
Answer: inconclusive: 0.638% [signal inhibitor]

Question: Which IkBa stabilization activation [1] does the source give for `Cc1ccc(NC(=O)Cn2cc(C(=O)c3cccs3)c3ccccc32)cc1C` here?
Answer: inconclusive: 8.15% [signal inhibitor]

Question: Which IkBa stabilization activation [1] does the source give for `Cc1ccc(C(=O)c2cn(Cc3cccc(F)c3)c3nc(C)ccc3c2=O)cc1` here?
Answer: inconclusive: 7.72% [signal inhibitor]

Question: With `COc1ccc(-c2c(NC(C)=O)n(C)c3ccccc3c2=O)cc1` as the compound, how does the Potency [1] read?
Answer: inconclusive: 25.1 µM [signal inhibitor, partial curve]

Question: For `CCC(Sc1nc2c(cnn2-c2ccc(Cl)cc2)c(=O)[nH]1)C(=O)OC` (stereo not given), which IkBa stabilization activation [1] is on record?
Answer: inactive

Question: For `CCNc1ncc2nc(CCc3ccccc3)c(=O)n(CCC#N)c2n1`, which IkBa stabilization activation [1] is on record?
Answer: inactive: -5.68% [at 11.4 µM, scaled: untreated 0%, proteasome inhibitor 100%]

Question: Which IkBa stabilization activation [1] does the source give for `Cn1c(=O)c(-c2ccc(Cl)cc2)nc2cnc(Oc3ccccc3)nc21` here?
Answer: inactive: -2.82% [at 11.4 µM, scaled: untreated 0%, proteasome inhibitor 100%]

Question: With `Cc1csc(NC(=O)Nc2cccc(Cl)c2)n1` as the compound, how does the IkBa stabilization activation [1] read?
Answer: inactive

Question: With `Cc1cccc(NS(=O)(=O)c2ccc(Cl)c(C(=O)Nc3ccccc3C)c2)c1` as the compound, how does the IkBa stabilization activation [1] read?
Answer: inconclusive: 9.6% [signal inhibitor]

Question: For `Cc1ccc(NC(=O)c2cc(-c3ccco3)on2)cc1C`, which Potency [1] is on record?
Answer: inconclusive: 15.8 µM [signal inhibitor, partial curve]

Question: For `CCCN(Cc1cccs1)C(=O)Nc1ccc(Br)c(C)c1`, which IkBa stabilization activation [1] is on record?
Answer: inconclusive: 1.22% [signal inhibitor]

Question: Which IkBa stabilization activation [1] does the source give for `CC(C)Cn1c(-c2ccc(S(=O)(=O)N3CCCC3)cc2)csc1=Nc1ccccc1` here?
Answer: inconclusive: -3.55% [signal inhibitor]

Question: For `CCOc1ccc(-c2nn3c(-c4ccc(F)cc4)nnc3s2)cc1`, which IkBa stabilization activation [1] is on record?
Answer: inactive

Question: With `c1csc(-c2nc3ccccn3c2Nc2ccc3c(c2)OCCO3)c1` as the compound, how does the IkBa stabilization activation [1] read?
Answer: inconclusive: 1.36% [signal inhibitor]

Question: Which IkBa stabilization activation [1] does the source give for `COc1ccccc1CNC(=O)c1cccc(NC(=O)N2CCSc3ncccc32)c1` here?
Answer: inconclusive: 4.21% [signal inhibitor]

Question: For `CCCCOC(=O)c1ccc(NC(=O)CSc2nc3c(c(=O)[nH]2)CCC3)cc1`, which IkBa stabilization activation [1] is on record?
Answer: inconclusive: 2.05% [signal inhibitor]

Question: Which IkBa stabilization activation [1] does the source give for `COC(=O)c1c(-c2ccc(Cl)cc2)noc1N1CCN(c2cccc(OC)c2)CC1` here?
Answer: inconclusive: 1.05% [signal inhibitor]

Question: Which IkBa stabilization activation [1] does the source give for `Cc1c(C(=O)NCc2ccc(F)cc2)sc2nc(-c3ccccc3)cn12` here?
Answer: inactive

Question: Which IkBa stabilization activation [1] does the source give for `CCOc1ccccc1C(=O)NCC(c1ccc(N(C)C)cc1)N1CCc2ccccc21` (stereo not given) here?
Answer: inconclusive: 8.49% [signal inhibitor]

Question: Which IkBa stabilization activation [1] does the source give for `CCOC(=O)c1cccc(Nc2nc(C(=O)OCC)nc3ccccc23)c1` here?
Answer: inconclusive: 2.11% [signal inhibitor]

Question: Which IkBa stabilization activation [1] does the source give for `COc1ccc(Cl)cc1-c1nc(-c2ccc(NC(=O)c3ccncc3)cc2)no1` here?
Answer: inactive

Question: Which IkBa stabilization activation [1] does the source give for `CCOC(=O)c1ccccc1NC(=O)c1cccs1` here?
Answer: inactive

Question: For `COc1ccc(CCNC(=O)CSc2nnc(CNc3ccc(Cl)cc3)o2)cc1OC`, which IkBa stabilization activation [1] is on record?
Answer: inconclusive: 6.43% [signal inhibitor]

Question: For `COCCCCC(=NOCCN)c1ccc(C(F)(F)F)cc1`, which IkBa stabilization activation [1] is on record?
Answer: inactive

Question: For `COC(=O)c1cc2occc2n1CC(=O)Nc1ccc(C)cc1C`, which IkBa stabilization activation [1] is on record?
Answer: inactive

Question: For `Cc1ccc(-n2ncc3c(NCCCn4ccnc4)ncnc32)cc1`, which IkBa stabilization activation [1] is on record?
Answer: inconclusive: -1.15% [signal inhibitor]

Question: For `Cc1ccc(NC(=O)c2cc(-c3cccs3)on2)cc1C`, which Potency [1] is on record?
Answer: inconclusive: 25.1 µM [signal inhibitor, partial curve]

Question: For `Cc1cc(C)n2nc(SCn3nnc4ccccc4c3=O)nc2n1`, which IkBa stabilization activation [1] is on record?
Answer: inactive

Question: For `CCN1CCN(CCCNC(=O)c2cnn(-c3ccc(C)cc3)c2C2CCN(C(=O)OC(C)(C)C)CC2)CC1`, which IkBa stabilization activation [1] is on record?
Answer: inconclusive: 2.05% [signal inhibitor]

Question: Which IkBa stabilization activation [1] does the source give for `Cc1cc(C)cc(NC(=O)c2ccc3c(O)c(S(=O)(=O)c4ccccc4)c(=O)[nH]c3c2)c1` here?
Answer: inconclusive: 2.14% [signal inhibitor]

Question: For `COc1cc(Cl)c(C)cc1NC(=O)c1ccc(CN2C(=O)CCn3nc(C)cc32)cc1`, which IkBa stabilization activation [1] is on record?
Answer: inconclusive: -0.472% [signal inhibitor]

Question: Which IkBa stabilization activation [1] does the source give for `Cc1c(Cl)cccc1NC(=O)CSc1ncc(S(=O)(=O)c2ccc(C(C)C)cc2)c(=O)[nH]1` here?
Answer: inconclusive: 8.01% [signal inhibitor]

Question: For `c1ccc(-c2cc(CSc3nc4ccccc4[nH]3)on2)cc1`, which IkBa stabilization activation [1] is on record?
Answer: inconclusive: 1.93% [signal inhibitor]

Question: With `CCCCOC(=O)c1ccc(NC(=O)Cc2coc3c(C)c(C)ccc23)cc1` as the compound, how does the Potency [1] read?
Answer: inconclusive: 10 µM [signal inhibitor, partial curve]

Question: With `Cc1cc(C)c2c(N)c(S(=O)(=O)c3ccccc3)sc2n1` as the compound, how does the IkBa stabilization activation [1] read?
Answer: inconclusive: 0.546% [signal inhibitor]

Question: With `Cc1ccc(OCC(=O)N(Cc2ccco2)c2ccccn2)cc1` as the compound, how does the IkBa stabilization activation [1] read?
Answer: inactive

Question: Which IkBa stabilization activation [1] does the source give for `CCC(=O)N1CCc2cc(CNC(=O)Nc3cc(C)ccc3C)ccc21` here?
Answer: inactive

Question: Which IkBa stabilization activation [1] does the source give for `Cc1cccc(CNC(=O)CN2C(=O)C3CCCCN3c3ccc(C(=O)N4CCCC4)cc32)c1` (stereo not given) here?
Answer: inconclusive: 1.12% [signal inhibitor]

Question: Which Potency [1] does the source give for `Cc1ccc(-c2nnc(Nc3ccc(Cl)c(Cl)c3)c3ccccc23)cc1S(=O)(=O)N(C)C` here?
Answer: inconclusive: 2 µM [signal inhibitor, full curve]

Question: Which IkBa stabilization activation [1] does the source give for `COc1ccc(CCNS(=O)(=O)c2ccc(F)c(C(=O)Nc3ccc(Cl)cc3)c2)cc1OC` here?
Answer: inconclusive: 4.17% [signal inhibitor]

Question: Which IkBa stabilization activation [1] does the source give for `Cc1ccc(C(=O)N2CCN(c3ccc(F)cc3)CC2)cc1NC(=O)c1nsc2ccccc12` here?
Answer: inconclusive: -1.04% [signal inhibitor]

Question: With `CCn1c(C(=O)NCc2ccc(OC)cc2)cc2sc(Cl)cc21` as the compound, how does the IkBa stabilization activation [1] read?
Answer: inconclusive: 0.755% [signal inhibitor]

Question: Which IkBa stabilization activation [1] does the source give for `CCNC(=O)c1c(NC(=O)Cc2coc3cc(C)ccc23)sc2c1CCCC2` here?
Answer: inactive

Question: Which IkBa stabilization activation [1] does the source give for `O=C(CCCn1c(=S)[nH]c2cc3c(cc2c1=O)OCO3)N1CCN(c2ccc(F)cc2)CC1` here?
Answer: inconclusive: 1.06% [signal inhibitor]

Question: Which IkBa stabilization activation [1] does the source give for `CCn1cc(C(=O)N2CCN(c3ccccc3)CC2)c(=O)c2cc(S(=O)(=O)N3CCCC3)ccc21` here?
Answer: inconclusive: 0.51% [signal inhibitor]

Question: Which IkBa stabilization activation [1] does the source give for `O=C(CSc1nnc(-c2ccccc2)o1)c1nnc(-c2ccccc2)o1` here?
Answer: inconclusive: 2.22% [signal inhibitor]

Question: For `Cc1ccc(Nc2ncnc3onc(C)c23)cc1Cl`, which IkBa stabilization activation [1] is on record?
Answer: inactive

Question: With `CCOc1ccccc1Nc1nc(-c2ccc(C)cc2)c(CC(=O)O)s1` as the compound, how does the IkBa stabilization activation [1] read?
Answer: inconclusive: 13.4% [signal inhibitor]

Question: With `O=C(CNC(=O)c1ccco1)OCC(=O)c1ccc2c(c1)CCCC2` as the compound, how does the IkBa stabilization activation [1] read?
Answer: inactive

Question: With `COc1cccc(CNC(=O)CN2C(=O)N(c3c(C)cccc3C)S(=O)(=O)c3ccccc32)c1OC` as the compound, how does the IkBa stabilization activation [1] read?
Answer: inconclusive: -0.0751% [signal inhibitor]

Question: Which IkBa stabilization activation [1] does the source give for `COc1ccc(C2c3c(oc4ccc(Cl)cc4c3=O)C(=O)N2CCCN(C)C)cc1OC` (stereo not given) here?
Answer: inactive

Question: For `COc1ccc(OC)c(NC(=O)C(C)n2nc(C)c3c(C)n(-c4ccccc4)nc3c2=O)c1` (stereo not given), which IkBa stabilization activation [1] is on record?
Answer: inconclusive: -0.289% [signal inhibitor]

Question: With `COc1ccc2c(c1)CCc1c(C(=O)Nc3c(C)nn(Cc4ccc(Cl)cc4)c3C)noc1-2` as the compound, how does the Potency [1] read?
Answer: inconclusive: 5.01 µM [signal inhibitor, single point]

Question: For `CCC(C)Sc1nc2c(cnn2-c2ccc(C)c(C)c2)c(=O)[nH]1` (stereo not given), which IkBa stabilization activation [1] is on record?
Answer: inactive

Question: With `COc1cc2c(C#N)c(N3CCCCC3)nc(N)c2c(N)n1` as the compound, how does the IkBa stabilization activation [1] read?
Answer: inactive

Question: For `CC(=O)c1cccc(NC(=O)Cn2c(=O)oc3cc(S(=O)(=O)NC4CCCC4)ccc32)c1`, which IkBa stabilization activation [1] is on record?
Answer: inconclusive: 0.197% [signal inhibitor]

Question: With `CC(=O)c1ccc(Nc2nc3ccccc3nc2-n2nc(C)cc2C)cc1` as the compound, how does the Potency [1] read?
Answer: inconclusive: 3.98 µM [signal inhibitor, full curve]

Question: For `COc1cccc(NC(=O)CSc2nccn2Cc2ccc3c(c2)OCO3)c1`, which IkBa stabilization activation [1] is on record?
Answer: inconclusive: 1.61% [signal inhibitor]

Question: With `O=C(Nc1ccc(SC(F)F)cc1)C1=COCCO1` as the compound, how does the IkBa stabilization activation [1] read?
Answer: inactive

Question: Which IkBa stabilization activation [1] does the source give for `Cc1sc2ncnc(SC(C)C#N)c2c1C` (stereo not given) here?
Answer: inactive

Question: With `CC1=C(C(=O)OCc2ccc3c(c2)OCO3)C(c2ccccc2)NC(=O)N1` (stereo not given) as the compound, how does the IkBa stabilization activation [1] read?
Answer: inconclusive: 8.02% [signal inhibitor]

Question: With `CN(C)c1ccc(NC(=O)CSc2nc3ccccc3c(=O)n2C2CCCCC2)cc1` as the compound, how does the IkBa stabilization activation [1] read?
Answer: inactive

Question: For `C=CCc1ccccc1OCCn1c(C2CC(=O)N(Cc3ccc(F)cc3)C2)nc2ccccc21` (stereo not given), which IkBa stabilization activation [1] is on record?
Answer: inconclusive: 1.01% [signal inhibitor]

Question: Which IkBa stabilization activation [1] does the source give for `Cc1ccc2nc(-c3cccc(Cl)c3)c(Nc3ccc4c(c3)OCO4)n2c1` here?
Answer: inconclusive: 4.7% [signal inhibitor]

Question: For `Cc1ccc(C)c(NC(=O)N2CCc3cc(S(=O)(=O)N4CCC(C)CC4)ccc32)c1`, which IkBa stabilization activation [1] is on record?
Answer: inconclusive: -0.0219% [signal inhibitor]

Question: For `COc1ccccc1CCNC(=O)C(=O)NCC(c1cccs1)S(=O)(=O)c1ccc(F)cc1` (stereo not given), which IkBa stabilization activation [1] is on record?
Answer: inconclusive: 2% [signal inhibitor]

Question: For `CCc1ccc(S(=O)(=O)c2nnn3c2nc(NCc2cccc(OC)c2)c2cc(Cl)ccc23)cc1`, which IkBa stabilization activation [1] is on record?
Answer: inconclusive: 1.21% [signal inhibitor]
